PubChem BioAssay AID485294 (National Center for Advancing Translational Sciences (NCATS), 2010)
Out of some 370,000 compounds screened, about 150 (0.041%) were called active. The inconclusive results got no clear call from the source; some entries with a clear call stand among them for comparison. The call rests on the fitted dose curve; in most records, active means well fitted inhibition curve with a large enough effect; inconclusive means small, poorly fitted or top-dose-only effect; inactive means flat fitted curve, though single readings scatter. Potencies of inconclusive entries are left out as doubtful fits.

These compounds were tested against Beta-lactamase (Escherichia coli (strain K12)) (UniProt P00811) (assay: qHTS Inhibitors of AmpC Beta-Lactamase (assay with detergent)). Conditions: AmpC hydrolysis of nitrocefin, absorbance 480 nm, 0.01% Triton; activity change, negative = inhibition: at 114 µM (top of the series).
Sequence of UniProt P00811 (P00811 whole entry, looked up): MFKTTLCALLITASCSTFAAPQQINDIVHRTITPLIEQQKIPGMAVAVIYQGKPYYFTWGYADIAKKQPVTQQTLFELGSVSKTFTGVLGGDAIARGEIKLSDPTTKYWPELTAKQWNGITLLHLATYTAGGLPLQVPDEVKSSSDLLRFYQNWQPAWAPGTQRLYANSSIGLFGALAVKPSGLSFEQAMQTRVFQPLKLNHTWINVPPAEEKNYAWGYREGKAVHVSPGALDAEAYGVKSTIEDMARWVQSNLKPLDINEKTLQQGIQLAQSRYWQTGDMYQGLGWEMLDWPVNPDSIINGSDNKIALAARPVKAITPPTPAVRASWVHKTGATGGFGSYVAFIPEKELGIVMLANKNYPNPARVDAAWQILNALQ
Outline: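 AmpC (5.3 nM in the dispensed reagent) in 20 mM phosphate pH 7.0 with 0.01% (detergent screen) or 0.0001% Triton X-100 was preincubated with compounds for 15 min at room temperature. Nitrocefin was then added from an 800 uM solution, and hydrolysis was followed at 480 nm.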
Further: nearly all actives have a fitted effect of over 25% in size.
Potency means the concentration at half of the fitted maximal effect; tags describe the fitted curve by direction and shape.
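Wherever activity change, negative = inhibition is given: 0% = no-compound wells and -100% = no-enzyme wells.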

Structure (SMILES) | activity change, negative = inhibition | Potency
O=C(N/N=C/C(Br)=C/c1ccccc1)NC1CCCCC1 | inactive: 4.23% | –
COc1ccc2c(c1)O/C(=C\c1ccco1)C2=O | inactive: -7.28% | –
Cc1sc2ncnc(N3CCC(C(=O)NNC(=O)COc4ccccc4F)CC3)c2c1C | inactive: -14.2% | –
NC(N)=NC(=O)c1nc(Cl)c(N)nc1N | inactive: -7.99% | –
Cc1cccc2cc(-c3nc4ccc(C(=O)O)cc4[nH]3)c(=O)oc12 | – | inconclusive [inhibitor, single point]
COc1ccc(C(=O)N2CCN(c3cccc(Cl)c3)CC2)cc1S(=O)(=O)NC1CC1 | – | inconclusive [inhibitor, partial curve, poor fit]
CCOC(=O)N1CCN(CCC(=O)Nc2ccc(C)cc2)CC1 | – | inconclusive [inhibitor, partial curve, poor fit]
Cc1noc(C)c1CN1C(=O)c2cccc([N+](=O)[O-])c2C1=O | inactive: 1.35% | –
COc1ccc(OC)c2c1CC(C)(C)NC2=O | – | inconclusive [inhibitor, full curve]
Cc1onc(-c2ccccc2Cl)c1C(=O)Nc1ccccc1C(=O)NC(C)C | inactive: 3.21% | –
CC(=O)c1c(C)[nH]c(C(=O)Nc2cccc3ccccc23)c1C | inactive: -6.32% | –
COc1cc(OC)c(-c2nn3c(C4CCCCC4)nnc3s2)cc1OC | – | inconclusive [inhibitor, partial curve, poor fit]
CCOc1cc(CNc2ccc(S(N)(=O)=O)cc2)cc(Cl)c1OC | – | inconclusive [inhibitor, single point]
CC(=O)N=c1sc2nc3ccccc3nc2n1N(C(C)=O)C(C)=O | – | inconclusive [inhibitor, full curve, poor fit]
CCOc1ccc(OCC)c(Nc2cc(C)nc3nc(C)nn23)c1 | – | inconclusive [inhibitor, full curve, poor fit]
O=C(Nc1ccccc1)N(O)c1ccc(Cl)cc1 | – | inconclusive [inhibitor, single point]
CCCC1=Nc2cc(C(=O)NCCCOC(C)C)ccc2Sc2ccccc21 | – | inconclusive [inhibitor, single point]
O=C(CSc1oc(-c2ccc(F)cc2)nc1S(=O)(=O)c1ccc(Cl)cc1)c1ccccc1 | – | inconclusive [inhibitor, full curve, poor fit]
Nc1nonc1-c1nc2ccccc2n1Cc1ccc(Cl)cc1 | – | inconclusive [inhibitor, full curve]
CCOc1cccc2cc(C(=O)NCc3ccccc3Cl)c(=O)oc12 | – | inconclusive [inhibitor, full curve, poor fit]
CCN(CC)S(=O)(=O)c1cc(NC(=O)C(=O)c2c(-c3ccccc3)cc3ccccn23)ccc1C | inactive: -14.1% | –
O=C(O)c1ccc(-c2nc(-c3ccccc3)cs2)cc1 | – | inconclusive [inhibitor, full curve, poor fit]
CCOC(=O)c1c(NC(=O)CSC(=S)N(C)C)sc(C)c1C | – | inconclusive [inhibitor, partial curve, poor fit]
COc1ccc(CNC(=O)c2cccnc2)cc1 | inactive: 4.86% | –

Structure (SMILES) | activity change, negative = inhibition | Potency
Cc1cc(/C=C2\C(=N)N3N=C(C(C)C)SC3=NC2=O)c(C)n1-c1ccccc1 | inactive: 2.75% | –
Cc1ccc(NC(=O)C2CCN(C(=O)c3cnn(-c4ccccc4)c3-n3cccc3)CC2)cc1C | inactive: 9.92% | –
Cc1ccc(Nc2nc(/N=C/N(C)C)n[nH]2)cc1C | – | inconclusive [inhibitor, full curve]
CC1CCCCC1NC(=O)/C(C#N)=C/c1ccc2c(c1)OCCO2 (configuration not stated) | – | inconclusive [inhibitor, partial curve, poor fit]
CC1=NN(C(=O)CCc2ccc3c(c2)OCO3)C(O)(C(F)(F)F)C1 (configuration not stated) | – | inconclusive [inhibitor, single point]
O=C(COC(=O)c1cc[n+]([O-])cc1)Nc1cccc(Cl)c1Cl | inactive: -18.4% | –
Cc1ccnc(NC(=O)C2CC(=O)N(Cc3ccccc3)C2)c1 (configuration not stated) | – | inconclusive [inhibitor, full curve, poor fit]
CCO[C@H]1OC(C(=O)N2CCN(Cc3ccc4c(c3)OCO4)CC2)=C[C@@H](c2ccccc2)[C@@H]1CCCO | inactive: 6.84% | –
COc1ccc(NC(=O)Nc2ccccc2F)cc1 | inactive: -15.7% | –
COc1ccccc1CNC(=O)C(CCSC)NS(=O)(=O)c1ccc2c(c1)oc(=O)n2C (configuration not stated) | inactive: -11% | –
COc1ccc(/C(N)=N/OC(=O)c2cccc([N+](=O)[O-])c2C)cc1OC | – | inconclusive [inhibitor, single point]
CC(C)CC(=O)Nc1cc([N+](=O)[O-])ccc1Cl | – | inconclusive [inhibitor, single point]
COc1ccc(C(=O)c2c(C(F)(F)F)oc3c2C(=O)c2ccccc2C3=O)cc1OC | inactive: 0.479% | –
Cc1ccc(NC(=O)N/C=C/c2ccccc2)cc1 | – | inconclusive [inhibitor, single point]
CCOC(=O)C1CCCN(C(=O)c2ccc(C)c([N+](=O)[O-])c2)C1 (configuration not stated) | – | inconclusive [inhibitor, partial curve, poor fit]
COc1ccc(C(=O)N2CCN(c3ccc(C)cc3)CC2)cc1OC | – | inconclusive [inhibitor, partial curve]
CCN1CCN(Cc2nnc(-c3ccccc3)o2)CC1 | – | inconclusive [inhibitor, single point]
CC(NC(=O)CN1C(=O)COc2ccc(Cl)cc21)c1ccccc1 (configuration not stated) | inactive: 1.65% | –
COc1ccc(Cc2noc(CN(C)CCN3CCc4ccccc4C3)n2)cc1OC | inactive: -5.29% | –
COc1ccc(Cl)cc1NC(=O)NCc1noc2ccccc12 | inactive: -6.07% | –
CC(=O)Nc1cccc(OC(=O)N2CCOCC2)c1 | – | inconclusive [inhibitor, full curve]
CC(=O)Nc1ccc(NC(=S)NC(=O)C2CC2)cc1 | – | inconclusive [inhibitor, partial curve, poor fit]
Cc1ccc(C(=O)c2ccc(N3CCN(C)CC3)c([N+](=O)[O-])c2)cc1 | – | inconclusive [inhibitor, full curve, poor fit]
